Data taken from US20230340058A1.

B1: SEQ ID NO: 54 (Fc fusion)
chain: [human IgG1 Fc with changes skipped]GGSDSWKEEVIKLCGRELVRAQIAICGKSTGGGEGGGEGGGEGGGQLYSALANKCCHVGCTKRSLARFC
B2: SEQ ID NO: 55 (Fc fusion)
chain: [human IgG1 Fc with changes skipped]GGSDSWMEEVIKLCGRELVRAQIAICGKSTGGGEGGGEGGGEGRQLYSALANKCCHVGCTKRSLARFC
B3: SEQ ID NO: 56 (Fc fusion)
chain: [human IgG1 Fc with changes skipped]GGSDSWQEEVIKLCGRELVRAQIAICGKSTGGGEGGGEGGGEGRQLYSALANKCCHVGCTKRSLARFC
B4: SEQ ID NO: 58 (Fc fusion)
chain: [human IgG1 Fc with changes skipped]GGSDSWMEEVIKLCGRELVRAQIAICGKSTGGGEGGGEGGGEGGGQLYSALANKCCHVGCTKRSLARFC
B5: SEQ ID NO: 59 (Fc fusion)
chain: [human IgG1 Fc with changes skipped]GGSDSWQEEVIKLCGRELVRAQIAICGKSTGGGEGGGEGGGEGGGQLYSALANKCCHVGCTKRSLARFC
B6: SEQ ID NO: 191 (Fc fusion)
chain: [human IgG1 Fc with changes skipped]GGSDSWKEEVIKLCGRELVRAQIAICGKSTASDAAGANANAGARQLYSALANKCCHVGCTKRSLAQFC
B7: SEQ ID NO: 192 (Fc fusion)
chain: [human IgG1 Fc with changes skipped]GGSDSWKEEVIKLCGRELVRAQIAICGKSTASDAAGANANAGARQLYSALANKCCHVGCTKRSLAEFC
B8: Prior fusion (SEQ ID NO: 224) (Fc fusion)
chain: [human IgG1 Fc skipped]GGGGSGGGGSGGGGSQLYSALANKCCHVGCTKRSLARFCGGGGSGGGGSGGGGSSWMEEVIKLCGRELVRAQIAICGMSTWS
B9: SEQ ID NO: 53 (Fc fusion)
chain: [human IgG1 Fc with changes skipped]GGSDSWKEEVIKLCGRELVRAQIAICGKSTGGGEGGGEGGGEGRQLYSALANKCCHVGCTKRSLARFC

Molecular target: human RXFP1, full-length (human), Q9HBX9
Assay: cell-based or functional assay

Sequence of human RXFP1, full-length (human), Q9HBX9 (Q9HBX9 whole entry): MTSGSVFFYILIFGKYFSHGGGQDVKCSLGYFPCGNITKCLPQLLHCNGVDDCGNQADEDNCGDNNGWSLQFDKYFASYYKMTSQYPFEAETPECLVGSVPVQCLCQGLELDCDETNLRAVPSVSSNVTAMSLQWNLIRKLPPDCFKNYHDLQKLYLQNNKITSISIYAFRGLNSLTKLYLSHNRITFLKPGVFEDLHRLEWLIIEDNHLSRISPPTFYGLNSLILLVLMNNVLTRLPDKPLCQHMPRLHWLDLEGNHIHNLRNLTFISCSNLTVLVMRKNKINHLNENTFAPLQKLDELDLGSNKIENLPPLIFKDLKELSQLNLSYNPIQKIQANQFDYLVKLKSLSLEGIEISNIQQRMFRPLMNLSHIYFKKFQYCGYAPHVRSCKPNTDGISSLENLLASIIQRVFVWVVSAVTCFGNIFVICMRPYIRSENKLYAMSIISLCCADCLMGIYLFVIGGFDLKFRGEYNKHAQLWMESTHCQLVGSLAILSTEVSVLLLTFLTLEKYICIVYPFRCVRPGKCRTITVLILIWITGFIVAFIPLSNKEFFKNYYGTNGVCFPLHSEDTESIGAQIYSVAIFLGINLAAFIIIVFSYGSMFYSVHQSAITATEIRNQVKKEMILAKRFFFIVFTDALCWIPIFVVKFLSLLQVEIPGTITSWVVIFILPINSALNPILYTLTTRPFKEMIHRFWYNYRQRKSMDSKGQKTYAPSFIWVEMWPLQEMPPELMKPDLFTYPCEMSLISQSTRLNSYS

Binder | EC50 in nM (cAMP Response in RXFP1 Transfected HEK293 Cells) | pEC50 (cAMP Response in RXFP1 Transfected HEK293 Cells) | Potency Assay EC50 (nM), transient hRXFP1 cAMP assay
B1 | 7.87 nM | 8.1 | –
B2 | 2.41 nM | 8.62 | –
B3 | 1.9 nM | 8.72 | –
B4 | 14.7 nM | 7.83 | –
B5 | 17.7 nM | 7.75 | –
B6 | 0.42 nM | 9.37 | –
B7 | 1.46 nM | 8.84 | –
B8 | – | – | 0.3 nM
B9 | 2.17 nM | 8.66 | –
